Measured values from the RNAGym collection of RNA variant scans (doi:10.1093/nar/gkz1192).
Read counts are not given, so values of variants with three or more changes are uncertain.

B1: CPEB3 Ribozyme (parent)
chain: UAACAGGGGGCCACAGCAGAAGCGUUCACGUCGCAGCCCCUGUCAGAUUCUGGUGAAUCUGCGAAUUCUGCUGUAUAUCUC

Variants of: B1
Assay: self-cleavage, relative activity (ratio to wild type); higher = more cleavage; in vitro, sequencing
Procedure, shortened: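 After error-prone PCR and barcoding, CPEB3 ribozyme mutant libraries were transcribed with T7 RNA polymerase at 37°C for 5 hours, then given 15 min with DNase I before an EDTA stop, and they cleaved during both steps. Reverse transcription with template switching preceded Illumina sequencing. Relative activity divides a variant's cleaved/total read fraction by the unmutated ribozyme's. At least 5 reads were required per variant, and three batches were averaged.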

Variant | self-cleavage
UAACAGUGGGCCACAGCAGAAGCGUUCUCGUCGCAGCCCCAGUCAGAUUCAGGUGAAUCUGCGAAUUCUGCCGUAUAUCUC [G7U A28U U41A U51A U72C] | 0.06
UAACAGUGGGCCACGGCAGAAGCGUUCACGUCGCAGCCCCUGUCAGAUGCUGGUGAAUCAGCGAAUUCUGCUGUACAUCUC [G7U A15G U49G U60A U76C] | 0.15
UAACAGUGGGCCACAGCAGAAGUGUUCACGUCGCAGCCCCCGUCAGAUUCUGGUGAAUCAGCGAAUCCUGCUGUAUAUCUC [G7U C23U U41C U60A U67C] | 0.04
UAACAGUGGGCCACAACGGAAGCGUUCACGUCGCAGCCCCUGUCUGAUUCAGGUGAAUCUGCGAAUUCUGCUGUAUAUCUC [G7U G16A A18G A45U U51A] | 0.07
UAACAGUGGGCCACAGCAGAAGCGUUCACGUCGCGGCCCCUGUCAGACUCAGGGGAAUCUGCGAAUUCUGCUGUAUAUCUC [G7U A35G U48C U51A U54G] | 0.06
UAACAGUGGGCCACAGCUGAAGCGUUCACGUCGCAGCCCCUGUCAGAUUCUGGUGAAUCUGCGAAUUCUGCCGUAAAUCUC [G7U A18U U72C U76A] | 0.04
UAACAGUGGGCCACGGCAGAAGCGUUCACGUCGCAGCCCCUGUCCGAUUCCCGUGGAUCAGCGAAUUCUGCUGUAUAUCUC [G7U A15G A45C U51C G52C A56G U60A] | 0.08
UAACAGUGGGCCACGGCAGAAGCGUUCACGUCGCAGCCCCUGUCAGAUUCUGGUGAAUCUGCGAACUCUGCUGUAUAUCUC [G7U A15G U66C] | 0.1
UAACAGUGGGCCACAGCAGAAGCGUUCACGUCGCAGCCCCUGUCAGAUUCUGGUGGAUCUGCGGAUUCUGCUGUAUAUCUC [G7U A56G A64G] | 0.21
UAACAGUGGGCCACAGCAGAGGCGUUCACGUCGCAGCACCUGUCAAAUUCUGGUGAAUCUGCGAAUCCUGCUGUAUACCUC [G7U A21G C38A G46A U67C U78C] | 0.08
UAACAGUGGGCCACAGCAGAAGCGUUCACGUCGCAGCCCCUGUCCGAUUCUGGUGUAUCAGCGAAUUCCACUGUAUGUCUC [G7U A45C A56U U60A U69C G70A A77G] | 0.04
UAACAGUGGGCCGCAGCAGAAGCGUUCACGCCGCAGCCCCUGUCAGAUUCUGGUGAAUCUGCGAAUUCUGCUGAAUACCUC [G7U A13G U31C U74A U78C] | 0.09
UAACAGUGGGCCACAGCAGUAGCGUUCACGUCGCAGCCCCUGUCAGAUUCUGGUGAAUCCGCGAAUUCAGCUGUAUAUCUC [G7U A20U U60C U69A] | 0.05
UAACAGUGGGCCACAGCAGAAGUGUUCACGUCGCAGCCCCUGUCAGAUUCUGGUGAAUCUGCGAAUCCUGCUGUAUAUCUC [G7U C23U U67C] | 0.08
UAACAGUGGGCCACAGUAGAAGCGUUCACGUCGCAGCCCCUGUCAGAUUCUGGUGAAUCUGCGAAUACUGCUGUAUAUCUC [G7U C17U U67A] | 0.21
UAACAGUGGGCCACAGCAGGAGCGUUCUCGUCGCAGCCCCUGUCAGAUUCUGGUGAAUCUGCGAAUUCUGCCGUAUAUCUC [G7U A20G A28U U72C] | 0.07
UAACAGUGGGCCACAGCAGAAGCGUUCACGUCGGAGCCCCUGUCAGAUUCUGGUGAACCUGCGAUUUCUGCUGUAUAUCUC [G7U C34G U58C A65U] | 0.06

Variant | self-cleavage
UAACAGUGGGCCACAGCAGAGGCGUUCACGUCGCAGCCGCUGUCAGAUUCUGGUGAAUCUGCGAAUUCUGCUGUAUAUCUC [G7U A21G C39G] | 0.18
UAACAGUGGGCCGCAGCAGAAGCGUUCACGUCGCAGCCCCUGUCAGAUUCUGGCGAAUCUGCGAAUUCUGCUGUAUAUCUC [G7U A13G U54C] | 0.07
UAACAGUGGGCCUCAGCAGGAGCGUUCACGUCGCAGCCCCUGACAGAUUCUAGUGAACCUGCGAAUUCUGCUGUAUAUCUC [G7U A13U A20G U43A G52A U58C] | 0.24
UAACAGUGGGCCGCAGCAGAAGCGUUCACGUCGCAGCCCCUGUCAGAUUCUGGUGAAUCUGCGGAUUCUCCUGUUUAUCUC [G7U A13G A64G G70C A75U] | 0.04
UAACAGUGGGCCACGGCGGAAGCGAUCACGUCGCAGCCCCUGUCAGAUUCUGGUGAAUCUGCGAAUUCUGCUGUAUAUACC [G7U A15G A18G U25A C79A U80C] | 0.05
UAACAGUGGGCCACAGCAGAAGCGUUCGCGUCGCAGCCCCUGUCAGAUUCUGCUGAAUCUGCGAAUUCUGCUGUAUACCUC [G7U A28G G53C U78C] | 0.13
UAACAGUGGGCCACUGCAGAGGCGUUCACGUCGCAGCCCCUGUCAGAUUCUGGCGAAUCUGCGGAUUCCGCUGUAUAUCUC [G7U A15U A21G U54C A64G U69C] | 0.04
UAACAGUGGGCUACAGCGGAGGCGUUCGCGUCGCAGCCCCUGUCAGAUUCUGGUGAAUCUGCGGAUUCUGCUGUAUAUCUC [G7U C12U A18G A21G A28G A64G] | 0.04
UAACAGUGGGCCACUGCAGAAGCGUUCACGUCGCAGUCCCUGUCAGAUUCUGGUGAAUCUGCGAAUACUGCUGUAUACCUC [G7U A15U C37U U67A U78C] | 0.04
UAACAGUGGGCCCCAGCAGAAGCGUUCACGUCGCAGCCCCUGACGGAUUCUGGUGAAUCUGCGAAUUCUGCUAUAUUUCUC [G7U A13C U43A A45G G73A A77U] | 0.09
UAACAGUAGGCCACGGCAGAAGCGUUCACGUCGCUGCCCGUGUCGGAUUCUGGAGAAUCUGCGAAUUCUGCUGUAUAUCUC [G7U G8A A15G A35U C40G A45G U54A] | 0.24
UAACAGUGGGCCACAGCAGAAGUGUUCACGUCGCAGCCCCAGUCAGAUUCUGGUGAAUCUGCGAAUUCUGCUGUAUAUCUC [G7U C23U U41A] | 0.16
UAACAGUGGGCCACAGCAGAAGCGUUCACGUCGCUGCCCCUGUCAGAUCCUGGUGAAUCUGCGAAUUCUGCUGUAUAUCUC [G7U A35U U49C] | 0.33
UAACAGUGCGCCACAGCAGAAGCGCUCACGUCGCAGCCCCCGUCAGUUUCUGGUGAAUCAGCGAAUUCUGCUGUAUAUCUC [G7U G9C U25C U41C A47U U60A] | 0.06
UAACAGUGGGCCACAGCAGAAGCGUUCACGUCGCGGCCCCUGUCGGAUUCUGGUGAAUCUGCGAAUUCUGCUGUAUAUCCC [G7U A35G A45G U80C] | 0.4
UAACAGUGGGCCACAGCAGAAGCGUUCGCGUCGCAGCCCCCGUCAGAUUCAGGUGAAUCUGCGAAUUCUGCUGUAUAUCUC [G7U A28G U41C U51A] | 0.05
UAACAGUGGGCCACAGCACAGGCGUUCACGUCGCAGCCCCUGUCAGAUUCUGGUGAAUCCGCGAAUACUGCUGUAUAUCUC [G7U G19C A21G U60C U67A] | 0.1
